Reference: USRE48267E1, “Variants of C-type natriuretic peptide” (priority 2009, dated 2020)
Where two headings read alike, the source gives them in different places. Part of at least one peptide drawing is inferred or uncertain, most often the ends. Marks after values point to notes of the source that are not given here.

Experiments:
FGFR3^Y367C mouse femurs = assay: ex vivo growth of femur from mice with severe achondroplasia; conditions: 1 uM for 6 days
cGMP = cGMP response after different dose regimens in CD-1 mice; assay type: in vivo, mouse
wild type FVB mice = assay: dose responses of CNP variants in wild type FVB mice; assay type: in vivo, mouse
Protocol: Tail length and body weight were measured over the course of treatment. Animals were sacrificed at the end of the experiment and bone length assessed.

wild-type FVB mice [1] = assay: bone growth biomarkers in wild-type mice; assay type: in vivo, mouse
[2] = test system: normal juvenile cynomolgus monkeys; assay: dose responses of CNP variants in monkeys; assay type: in vivo, cynomolgus monkey; conditions: both doses, 10 or 36 μg/kg/day s.c.; on-going study
wild-type FVB mice [3] = assay: efficacy of CNP variants on bone growth in wild-type mice; assay type: in vivo, mouse
Protocol: The in vivo effects of CNP variants on bone growth were assessed in wild-type mice. Three week old FVB wild-type male mice received daily subcutaneous (s.c.) injection of either vehicle, G-CNP37 (200 nmol/kg) or […]”) (SEQ ID NO: 36) (200 nmol/kg) for 5 weeks. Body weight was measured at least once weekly. Tail length was measured at least once weekly using digital caliper readings, and body length (naso-anal length), bone length (tibia, femur, ulna and humerus), skull length (anterior to posterior cranial segment) and lumbar vertebrae 5 (LV5) length were measured after 5 weeks of treatment using a caliper. X-rays were taken at baseline and after 5 weeks of treatment. […] In another study, various dosing regimens of Pro-Gly-CNP37 were administered for nine weeks followed by one week of recovery. Wild-type FVB mice were dosed s.c. with: • (1) vehicle daily for nine weeks, followed by one week of recovery; • (2) 20 nmol/kg Pro -Gly-CNP37 daily for one week, followed by three doses per week for eight weeks and one week of recovery; • (3) 20 nmol/kg Pro-Gly-CNP37 on alternating weeks; or • (4) 5 nmol/kg Pro-Gly-CNP37 daily for nine weeks followed by one week of recovery.

[4] = CD-1 mice, single s.c. dose 200 nmol/kg, 15 minutes post injection
[5] = 20 nmol/kg s.c. once daily for 36 injections
[6] = 70 nmol/kg s.c. once daily for 36 injections
[7] = 20 nmol/kg s.c. once daily for 36 days
[8] = 70 nmol/kg s.c. once daily for 36 days
[9] = Group 2: 20 nmol/kg s.c. daily for one week, then three doses per week for eight weeks, one week of recovery
[10] = Group 3: 20 nmol/kg s.c. on alternating weeks
[11] = Group 4: 5 nmol/kg s.c. daily for nine weeks, one week of recovery
[12] = wild-type mice, 5 nmol/kg s.c. once daily for 5 weeks
[13] = wild-type mice, 20 nmol/kg s.c. once daily for 5 weeks
[14] = wild-type mice, 70 nmol/kg s.c. once daily for 5 weeks

CC[C@H](C)[C@@H]1NC(=O)[C@H](CCCNC(=N)N)NC(=O)[C@H](CC(=O)O)NC(=O)[C@H](CC(C)C)NC(=O)[C@H](CCCCN)NC(=O)[C@H](CC(C)C)NC(=O)CNC(=O)[C@H](Cc2ccccc2)NC(=O)[C@@H](NC(=O)CNC(=O)[C@H](CCCCN)NC(=O)[C@H](CO)NC(=O)[C@H](CC(C)C)NC(=O)CNC(=O)[C@H](CCCCN)NC(=O)[C@H](CCCCN)NC(=O)[C@H](CC(N)=O)NC(=O)[C@H](C)NC(=O)CNC(=O)[C@H](CCCCN)NC(=O)[C@H](Cc2ccc(O)cc2)NC(=O)[C@H](CCCCN)NC(=O)[C@H](CCCNC(=N)N)NC(=O)[C@H](C)NC(=O)[C@H](CC(N)=O)NC(=O)[C@@H]2CCCN2C(=O)[C@H](Cc2c[nH]cn2)NC(=O)[C@H](CCC(=O)O)NC(=O)[C@H](CCC(N)=O)NC(=O)CNC(=O)[C@@H]2CCCN2)CSSC[C@@H](C(=O)O)NC(=O)CNC(=O)[C@H](CC(C)C)NC(=O)CNC(=O)[C@H](CO)NC(=O)[C@H](CCSC)NC(=O)[C@H](CO)NC(=O)CNC1=O [Pro-Gly-CNP37]
bone growth and growth plate of bone explants (FGFR3^Y367C mouse femurs): increase in bone growth and expansion in the growth plate | growth deficiency length-wise compared to wild-type femurs treated with vehicle (FGFR3^Y367C mouse femurs): 11% | reduction of the growth defect (FGFR3^Y367C mouse femurs): around 40% | plasma cGMP signal under different dose regimens (cGMP; 20 or 200 nmol/kg s.c., single dose, days 0 and 1, or days 0 and 3, 15 minutes after the final dose): does not appear to be a modulation of the plasma cGMP signal | cGMP level in epiphysis (cGMP; [4]): approximately 2.5 pmol/ml/mg | cGMP level in plasma (cGMP; [4]): approximately 1300 pmol/ml | cGMP levels 1 day after injection (cGMP; single s.c. dose 200 nmol/kg): back to control levels | cGMP level in plasma (cGMP; single s.c. dose 200 nmol/kg, 3 hours): decreased approximately to control levels | cGMP in lung or brain (cGMP; single s.c. dose 200 nmol/kg, any timepoint): Little to no cGMP was detected | cGMP level in cortical bone (cGMP; single s.c. dose 200 nmol/kg, at 15 minutes, remained at this level at 3 hours): approximately 0.5 pmol/ml/mg | cGMP level in epiphysis at 3 hours, fold lower than at 15 minutes post injection (cGMP; single s.c. dose 200 nmol/kg, higher than control levels): approximately 3 fold | increase in growth velocity (total body length, Day 37 vs Day 1) (wild type FVB mice; 20 nmol/kg): ~130% | Femur, relative % increase v vehicle (wild type FVB mice; [5]): 7%* | Humerus, relative % increase v vehicle (wild type FVB mice; [5]): 3%* | LV4-6, relative % increase v vehicle (wild type FVB mice; [5]): 10%* | Naso-Anal, relative % increase v vehicle (wild type FVB mice; [5]): 7%* | Tail, relative % increase v vehicle (wild type FVB mice; [5]): 8%* | Tibia, relative % increase v vehicle (wild type FVB mice; [5]): 4%* | Ulna, relative % increase v vehicle (wild type FVB mice; [5]): 3% | tail length at day 36 (wild type FVB mice; [5]): approximately 8.75 cm | bone mineral content (wild type FVB mice; 70 nmol/kg): increased | bone mineral density (wild type FVB mice; 70 nmol/kg): significantly decreased | increase in growth velocity (total body length, Day 37 vs Day 1) (wild type FVB mice; 70 nmol/kg): ~160% | Femur, relative % increase v vehicle (wild type FVB mice; [6]): 10%* | Humerus, relative % increase v vehicle (wild type FVB mice; [6]): 4%* | LV4-6, relative % increase v vehicle (wild type FVB mice; [6]): 13%* | Naso-Anal, relative % increase v vehicle (wild type FVB mice; [6]): 13%* | Tail, relative % increase v vehicle (wild type FVB mice; [6]): 16%* | Tibia, relative % increase v vehicle (wild type FVB mice; [6]): 7%* | Ulna, relative % increase v vehicle (wild type FVB mice; [6]): 5%* | tail length at day 36 (wild type FVB mice; [6]): approximately 9.5 cm | level of bone-specific alkaline phosphatase compared to vehicle (wild-type FVB mice [1]; 70 nmol/kg): increased (p<0.05) | level of cleaved collagen type II compared to vehicle (wild-type FVB mice [1]; 70 nmol/kg): significantly increased (p<0.05) | plasma cGMP level 15 minutes after administration compared to vehicle (wild-type FVB mice [1]; both doses, 20 and 70 nmol/kg): significantly increased (p<0.05) | % of Total Alk Phos (bone specific) (wild type mice; 20 nmol/kg): 41.2% | Bone-specific AP IU/L (wild type mice; 20 nmol/kg): 65.9 IU/L | Total AP IU/L (wild type mice; 20 nmol/kg): 159.9 IU/L | serum alkaline phosphatase (AP) levels (wild type mice; [7]): approximately 155 IU/L | serum levels of cleaved collagen type II (wild type mice; [7]): approximately 12 pg/ml | % of Total Alk Phos (bone specific) (wild type mice; 70 nmol/kg): 42.7% | Bone-specific AP IU/L (wild type mice; 70 nmol/kg): 78.4 IU/L | Total AP IU/L (wild type mice; 70 nmol/kg): 183.6 IU/L | plasma cGMP levels 15 minutes after the last injection, day 36 (wild type mice; [8]): approximately 575 pmol | serum alkaline phosphatase (AP) levels (wild type mice; [8]): approximately 180 IU/L | serum levels of cleaved collagen type II (wild type mice; [8]): approximately 16 pg/ml | arm length by external measurement [2]: increased | body length by external measurement [2]: increased | growth plate width by digital X-ray [2]: increased | leg length by external measurement [2]: increased | right and left tibia lengths by digital X-ray [2]: increased | serum level of alkaline phosphatase [2]: increased | Femur length, relative to vehicle = 100% (wild-type FVB mice [3]; [9]): 105.3%** | Humerus length, relative to vehicle = 100% (wild-type FVB mice [3]; [9]): 102.5% | Naso-Anal length, relative to vehicle = 100% (wild-type FVB mice [3]; [9]): 106.0%** | Tail length, relative to vehicle = 100% (wild-type FVB mice [3]; [9]): 104.8%** | Tibia length, relative to vehicle = 100% (wild-type FVB mice [3]; [9]): 100.8% | Ulna length, relative to vehicle = 100% (wild-type FVB mice [3]; [9]): 101.7% | Femur length, relative to vehicle = 100% (wild-type FVB mice [3]; [10]): 104.1%** | Humerus length, relative to vehicle = 100% (wild-type FVB mice [3]; [10]): 102.6%* | Naso-Anal length, relative to vehicle = 100% (wild-type FVB mice [3]; [10]): 106.5%** | Tail length, relative to vehicle = 100% (wild-type FVB mice [3]; [10]): 106.7%** | Tibia length, relative to vehicle = 100% (wild-type FVB mice [3]; [10]): 102.5%** | Ulna length, relative to vehicle = 100% (wild-type FVB mice [3]; [10]): 102.8%* | Femur length, relative to vehicle = 100% (wild-type FVB mice [3]; [11]): 107.3%** | Humerus length, relative to vehicle = 100% (wild-type FVB mice [3]; [11]): 102.3%** | Naso-Anal length, relative to vehicle = 100% (wild-type FVB mice [3]; [11]): 105.1%** | Tail length, relative to vehicle = 100% (wild-type FVB mice [3]; [11]): 104.9%** | Tibia length, relative to vehicle = 100% (wild-type FVB mice [3]; [11]): 102.7%** | Ulna length, relative to vehicle = 100% (wild-type FVB mice [3]; [11]): 103.6%** | Femur length, relative to vehicle = 100% (wild-type FVB mice [3]; [12]): 103.3%** | Humerus length, relative to vehicle = 100% (wild-type FVB mice [3]; [12]): 101.1% | Naso-Anal length, relative to vehicle = 100% (wild-type FVB mice [3]; [12]): 102.7%** | Tail length, relative to vehicle = 100% (wild-type FVB mice [3]; [12]): 107.6%** | Tibia length, relative to vehicle = 100% (wild-type FVB mice [3]; [12]): 101.7%** | Ulna length, relative to vehicle = 100% (wild-type FVB mice [3]; [12]): 100.9%* | Femur length, relative to vehicle = 100% (wild-type FVB mice [3]; [13]): 107.1%** | Humerus length, relative to vehicle = 100% (wild-type FVB mice [3]; [13]): 102.3%** | Naso-Anal length, relative to vehicle = 100% (wild-type FVB mice [3]; [13]): 107.6%** | Tail length, relative to vehicle = 100% (wild-type FVB mice [3]; [13]): 107.8%** | Tibia length, relative to vehicle = 100% (wild-type FVB mice [3]; [13]): 103.4%** | Ulna length, relative to vehicle = 100% (wild-type FVB mice [3]; [13]): 102.5%** | Femur length, relative to vehicle = 100% (wild-type FVB mice [3]; [14]): 109.3%** | Humerus length, relative to vehicle = 100% (wild-type FVB mice [3]; [14]): 103.6%** | Naso-Anal length, relative to vehicle = 100% (wild-type FVB mice [3]; [14]): 112.5%** | Tail length, relative to vehicle = 100% (wild-type FVB mice [3]; [14]): 113.6%** | Tibia length, relative to vehicle = 100% (wild-type FVB mice [3]; [14]): 105.9%** | Ulna length, relative to vehicle = 100% (wild-type FVB mice [3]; [14]): 104.1%**
